Experimental data published in the BET-seq Pho4 binding data (Le et al. 2018).
The list shows a part of the results. These are noisy estimates, calculated here from bound and input reads.

target: T1, Pho4 (S. cerevisiae) (UniProt P07270); assay: relative binding free energy (BET-seq); higher = weaker binding; settings: reference: library average
T1 sequence: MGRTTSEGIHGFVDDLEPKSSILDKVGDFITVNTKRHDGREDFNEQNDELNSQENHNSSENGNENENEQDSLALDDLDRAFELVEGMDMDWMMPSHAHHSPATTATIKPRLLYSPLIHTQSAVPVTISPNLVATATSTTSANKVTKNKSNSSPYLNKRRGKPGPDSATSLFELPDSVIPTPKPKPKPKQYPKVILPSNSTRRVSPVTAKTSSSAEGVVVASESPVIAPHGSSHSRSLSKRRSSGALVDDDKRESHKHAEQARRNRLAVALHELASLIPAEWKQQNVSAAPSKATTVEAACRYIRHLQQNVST

Row | Sequence | relative binding free energy
1 | GTAGTCACGTGAAGTT | 0.34 kcal/mol
2 | GCGGACACGTGTGGAT | 0.32 kcal/mol
3 | GTATTCACGTGCGGAT | 0.21 kcal/mol
4 | TACGTCACGTGTGGGG | 0.15 kcal/mol
5 | TTCTGCACGTGGGTAG | -0.12 kcal/mol
6 | GGGGTCACGTGGTATG | 0.05 kcal/mol
7 | CGTTGCACGTGTGTCG | -0.03 kcal/mol
8 | GGTGTCACGTGTTGCA | 0 kcal/mol
9 | TTGGTCACGTGGGACC | 0.06 kcal/mol
10 | GTTCACACGTGGGATA | 0.03 kcal/mol
11 | GCGAGCACGTGAGTGG | 0.19 kcal/mol
12 | GCCGTCACGTGGGTGG | -0.14 kcal/mol
13 | GTCGTCACGTGTTCTT | 0.26 kcal/mol
14 | GTCTGCACGTGGTCGT | 0.06 kcal/mol
15 | AGGTACACGTGATGCT | 0.21 kcal/mol
16 | TCAGTCACGTGTTGTT | -0.11 kcal/mol
17 | CGGCACACGTGGTTTG | 0.05 kcal/mol
18 | GGCGGCACGTGTGAGG | 0.01 kcal/mol
19 | GCATTCACGTGGTTAG | 0.29 kcal/mol
20 | ATGGTCACGTGTTACT | 0.11 kcal/mol
21 | AGGTTCACGTGTATTA | 0.26 kcal/mol
22 | GTTGGCACGTGTAATG | 0.1 kcal/mol
23 | ATAGACACGTGCGGGA | 0.02 kcal/mol

Row | Sequence | relative binding free energy
24 | GGGATCACGTGGGGAG | 0.03 kcal/mol
25 | GGCAGCACGTGGCGGA | -0.17 kcal/mol
26 | GTGAGCACGTGGTTAA | -0.01 kcal/mol
27 | AACATCACGTGTGGGT | 0.25 kcal/mol
28 | GTTATCACGTGATAGT | 0.31 kcal/mol
29 | GGAGTCACGTGATGGG | 0.28 kcal/mol
30 | TCAGTCACGTGGGGAA | -0.05 kcal/mol
31 | GTAATCACGTGAACGG | 0.31 kcal/mol
32 | TATTCCACGTGGGGAT | 0.01 kcal/mol
33 | TGAGTCACGTGGTGGA | 0.1 kcal/mol
34 | TGTTCCACGTGGAGGT | -0.04 kcal/mol
35 | GTAAGCACGTGGGCTT | -0.12 kcal/mol
36 | GTAGGCACGTGAAGTG | 0.19 kcal/mol
37 | ATGTGCACGTGGTCAG | -0.19 kcal/mol
38 | ATTGCCACGTGGTGGC | -0.15 kcal/mol
39 | CAGTTCACGTGGAGAT | 0.25 kcal/mol
40 | TATCACACGTGTGTGG | 0.16 kcal/mol
41 | GGGTGCACGTGAGGTT | 0.29 kcal/mol
42 | GTTGTCACGTGCGTCG | -0.06 kcal/mol
43 | GTTCTCACGTGACGGG | 0.45 kcal/mol
44 | AGCATCACGTGGGTAG | 0.02 kcal/mol
45 | TCAAACACGTGGGAGG | 0 kcal/mol
46 | AAGATCACGTGGGGGT | 0.07 kcal/mol

Row | Sequence | relative binding free energy
47 | TGGGTCACGTGTACAT | 0.1 kcal/mol
48 | AATGACACGTGGGTCA | -0.07 kcal/mol
49 | TTAAGCACGTGTGAAG | 0.16 kcal/mol
50 | TGCGCCACGTGTGTTG | -0.05 kcal/mol
51 | CAAGGCACGTGTTCGT | -0.03 kcal/mol
52 | TTAAACACGTGGTGTA | -0.19 kcal/mol
53 | TGGGTCACGTGTACGG | 0.11 kcal/mol
54 | ATACACACGTGGTGGG | -0.04 kcal/mol
55 | GGTGTCACGTGCTTGC | 0.06 kcal/mol
56 | CGATACACGTGGGGAT | -0.04 kcal/mol
57 | TAGGCCACGTGAGGGA | -0.02 kcal/mol
58 | GTATTCACGTGTTAAA | 0.33 kcal/mol
59 | GGACGCACGTGGTGTG | -0.04 kcal/mol
60 | CTAGTCACGTGGGTAT | 0.08 kcal/mol
61 | AGTGGCACGTGGAGAG | -0.13 kcal/mol
62 | CGGGGCACGTGTCGGA | -0.05 kcal/mol
63 | AAGACCACGTGTGGGG | 0.05 kcal/mol
64 | AGGGGCACGTGAAAAA | 0.26 kcal/mol
65 | GTTTTCACGTGGATCT | 0.46 kcal/mol
66 | TATTACACGTGTCTGT | -0.02 kcal/mol
67 | GGGGGCACGTGTACGA | 0.01 kcal/mol
68 | TTATGCACGTGGAAAG | 0.09 kcal/mol
69 | TGTGTCACGTGCGCCT | -0.09 kcal/mol

Row | Sequence | relative binding free energy
70 | TCGTTCACGTGGACGG | 0.33 kcal/mol
71 | TTAGGCACGTGAAGTT | 0.26 kcal/mol
72 | GGTAGCACGTGGTGCG | -0.06 kcal/mol
73 | TCGTGCACGTGTCATT | 0.14 kcal/mol
74 | GTAGCCACGTGCGGAG | 0.11 kcal/mol
75 | TCTAGCACGTGGGCAG | -0.18 kcal/mol
76 | GTTAGCACGTGTGGCT | 0.11 kcal/mol
77 | ATTGGCACGTGCTGAT | -0.24 kcal/mol
78 | TTAGGCACGTGCATTT | -0.21 kcal/mol
79 | GTAGTCACGTGGGGTT | 0 kcal/mol
80 | TCGGGCACGTGGGCTT | -0.22 kcal/mol
81 | GCGGCCACGTGGTGGA | -0.06 kcal/mol
82 | TATATCACGTGGAGAG | 0.19 kcal/mol
83 | TGTGTCACGTGAGAGC | 0.23 kcal/mol
84 | GTTAGCACGTGTGACG | 0.03 kcal/mol
85 | TTTTGCACGTGCATTA | 0.06 kcal/mol
86 | ATAGGCACGTGCGTAT | -0.23 kcal/mol
87 | GTTATCACGTGTTGTC | 0.19 kcal/mol
88 | TGTCACACGTGTTTAA | 0.18 kcal/mol
89 | ATAGTCACGTGCCGGG | 0.08 kcal/mol
90 | AGGAGCACGTGGTTGC | -0.14 kcal/mol
91 | TTTGACACGTGGGGAT | -0.19 kcal/mol
92 | TGGTACACGTGTGCAT | -0.07 kcal/mol

Row | Sequence | relative binding free energy
93 | AGGTTCACGTGTTTTG | 0.23 kcal/mol
94 | GTGGTCACGTGGAATA | 0.34 kcal/mol
95 | TTGTACACGTGTGGAG | 0.16 kcal/mol
96 | TCGTTCACGTGTGATT | 0.27 kcal/mol
97 | TGAGGCACGTGTGGGA | -0.02 kcal/mol
98 | TGGGACACGTGTGTGC | 0.03 kcal/mol
99 | TTCGTCACGTGCATTG | 0.1 kcal/mol
100 | TTGTACACGTGGCGCT | -0.04 kcal/mol
101 | TTTTACACGTGGCGTG | 0.11 kcal/mol
102 | TGCGGCACGTGATGAG | 0.03 kcal/mol
103 | CGGGGCACGTGGAAAG | -0.04 kcal/mol
104 | TGATACACGTGACGTG | 0.12 kcal/mol
105 | GCGATCACGTGGGTGG | 0.11 kcal/mol
106 | TCGGGCACGTGGTGCG | -0.35 kcal/mol
107 | AAGGACACGTGGTATA | 0.06 kcal/mol
108 | AGTAGCACGTGGCGTG | -0.21 kcal/mol
109 | GGGTTCACGTGGCTAA | 0.25 kcal/mol
110 | TGAGTCACGTGCGGGC | -0.09 kcal/mol
111 | TATTACACGTGTTAGG | 0.14 kcal/mol
112 | ATCGGCACGTGGGTTG | -0.21 kcal/mol
113 | TGGCCCACGTGGGCGG | -0.31 kcal/mol
114 | AATGACACGTGTATGG | -0.05 kcal/mol
115 | AGGGACACGTGTTGAG | 0.1 kcal/mol
